Consider 7 molecules from article PMC9879999, “A phosphoinositide hub connects CLE peptide signaling and polar auxin efflux regulation” (Nature Communications, 2023).

The target of assay [1] is T1, 3-phosphoinositide-dependent protein kinase 1 (PDK1) (Arabidopsis thaliana) (UniProt Q9XF67).
T1 sequence: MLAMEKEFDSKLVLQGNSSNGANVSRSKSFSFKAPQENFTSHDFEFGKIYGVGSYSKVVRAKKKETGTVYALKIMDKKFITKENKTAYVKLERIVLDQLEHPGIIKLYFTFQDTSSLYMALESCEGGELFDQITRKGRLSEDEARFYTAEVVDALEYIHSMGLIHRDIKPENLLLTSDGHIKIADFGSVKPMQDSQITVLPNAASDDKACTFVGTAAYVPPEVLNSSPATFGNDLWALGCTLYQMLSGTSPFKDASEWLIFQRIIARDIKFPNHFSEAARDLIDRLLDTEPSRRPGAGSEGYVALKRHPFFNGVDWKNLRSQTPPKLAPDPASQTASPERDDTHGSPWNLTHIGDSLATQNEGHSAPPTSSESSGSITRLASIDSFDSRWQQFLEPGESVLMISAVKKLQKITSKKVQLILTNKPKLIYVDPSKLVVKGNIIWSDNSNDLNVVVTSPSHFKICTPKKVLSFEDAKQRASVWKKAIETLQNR
The experiment in a line: two-hybrid; Golden Yeast strain; pGBKT7 or pGADT7 vectors as baits or preys; tested on -Trp-Leu and -Trp-Leu-Ade-His medium; 3-AT added for BRX-related bait proteins.

The target in assay [2] is T2, BRX-LIKE 2 (BRXL2) (Arabidopsis thaliana) (UniProt Q8GYL9).
T2 sequence: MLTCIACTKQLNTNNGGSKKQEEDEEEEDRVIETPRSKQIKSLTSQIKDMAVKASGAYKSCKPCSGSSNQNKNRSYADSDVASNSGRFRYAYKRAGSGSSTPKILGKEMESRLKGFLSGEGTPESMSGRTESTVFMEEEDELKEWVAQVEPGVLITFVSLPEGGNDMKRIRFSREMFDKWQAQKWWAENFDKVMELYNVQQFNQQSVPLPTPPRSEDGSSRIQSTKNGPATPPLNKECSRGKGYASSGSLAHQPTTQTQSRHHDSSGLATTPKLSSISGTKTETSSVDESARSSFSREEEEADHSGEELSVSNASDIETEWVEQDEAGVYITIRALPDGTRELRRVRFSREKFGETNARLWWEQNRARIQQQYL
The description is as above.

Assay [3] has as its target T3, BREVIS RADIX (BRX) (Arabidopsis thaliana) (UniProt Q17TI5).
T3 sequence: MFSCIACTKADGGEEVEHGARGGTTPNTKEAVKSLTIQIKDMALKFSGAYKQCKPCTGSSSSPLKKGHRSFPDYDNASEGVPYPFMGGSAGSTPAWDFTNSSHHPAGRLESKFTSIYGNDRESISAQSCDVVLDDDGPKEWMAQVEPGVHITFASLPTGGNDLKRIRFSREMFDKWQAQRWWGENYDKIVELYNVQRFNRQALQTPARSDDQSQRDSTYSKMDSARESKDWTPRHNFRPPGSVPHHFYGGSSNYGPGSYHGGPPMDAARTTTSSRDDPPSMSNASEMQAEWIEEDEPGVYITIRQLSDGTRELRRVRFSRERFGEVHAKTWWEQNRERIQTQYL
The assay is described as above.

Assay [4] concerns the target T4, nYFP-BRX (Arabidopsis thaliana) (UniProt Q17TI5).
T4 sequence: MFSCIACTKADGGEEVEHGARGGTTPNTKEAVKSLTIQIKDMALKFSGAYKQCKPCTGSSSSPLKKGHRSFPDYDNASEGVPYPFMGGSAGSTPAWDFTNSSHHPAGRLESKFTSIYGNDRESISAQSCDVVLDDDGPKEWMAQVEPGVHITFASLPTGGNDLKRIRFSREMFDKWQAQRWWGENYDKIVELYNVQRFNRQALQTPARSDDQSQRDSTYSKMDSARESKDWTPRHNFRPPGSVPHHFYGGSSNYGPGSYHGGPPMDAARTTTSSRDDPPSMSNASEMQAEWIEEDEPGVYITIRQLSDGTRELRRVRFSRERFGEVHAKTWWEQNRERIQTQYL
The experiment in a line: split reporter; BiFC: 35S::PBL34-cYFP and 35S::nYFP-BRX transiently co-expressed in Nicotiana benthamiana leaves; eYFP signal by confocal microscopy.

No constants are given. Whether binding was seen depends on the method and setting. For some of these results: In cells and extracts the contact can be indirect. Some binding calls cover weakened binding; strength is not graded here. For some of these results: Where a sequence is shown, tags or fusion partners need not be part of it.

B1: PBS1-LIKE 36 (PBL36) (enzyme, UniProt F4J0D2 1-476)
chain: MATKLESFKVVEKLGVEKGEKGKMMSKKKNVKKDGDESESGFWFRFKFIFSCISSRSKVDSSMNATAVIAEPKKVIEKLEGHPAPTKDTGCAESGSSTPLMSGELKYSSKLRIFMFNDLKLATRNFRPESLLGEGGFGCVFKGWIEENGTAPVKPGTGLTVAVKTLNPDGLQGHKEWLAEINFLGNLVHPSLVKLVGYCMEEDQRLLVYEFMPRGSLENHLFRRTLPLPWSVRMKIALGAAKGLAFLHEEAEKPVIYRDFKTSNILLDGEYNAKLSDFGLAKDAPDEKKSHVSTRVMGTYGYAAPEYVMTGHLTTKSDVYSFGVVLLEILTGRRSVDKSRPNGEQNLVEWVRPHLLDKKRFYRLLDPRLEGHYSIKGAQKATQVAAQCLNRDSKARPKMSEVVEALKPLPNLKDFASSSSSFQTMQPVAKNGVRTQGGGFVSRNGPPMRSLSSLNLPQASPYRYARQSPKPKGKEP
For the molecule B1, the binding entry in assay [1] is “no binding”; in assay [2], “no binding”; in assay [3], “binds”.

B2: PBS1-LIKE 35 (PBL35) (enzyme, UniProt Q9SRH7 1-490)
chain: MGFDSVKVMENWQSKTSNENEKKKKKRRRKKNNNVRNSEHYEEEANGCWVKFRYIVCCASSTSDVETSLTLSTSTVGSQSAIVQSNDQPVGPVSSTTTTSNAESSLSTPIISEELNIYSHLKKFSFIDLKLATRNFRPESLLGEGGFGCVFKGWVEENGTAPVKPGTGLTVAVKTLNPDGLQGHKEWLAEINYLGNLLHPNLVKLVGYCIEDDQRLLVYEFMPRGSLENHLFRRSLPLPWSIRMKIALGAAKGLSFLHEEALKPVIYRDFKTSNILLDGEYNAKLSDFGLAKDAPDEGKTHVSTRVMGTYGYAAPEYVMTGHLTSKSDVYSFGVVLLEMLTGRRSMDKNRPNGEHNLVEWARPHLLDKRRFYRLLDPRLEGHFSVKGAQKVTQLAAQCLSRDSKIRPKMSEVVEVLKPLPHLKDMASASYYFQTMQAERLKAGSGSGSGRGFGSRNGQPVFRTLSSPHGQAGSSPYRHQIPSPKPKGATT
Take B2: the binding result is reported as “no binding” in assay [1], “no binding” in assay [2] and “binds” in assay [3].

B3: kinase domain of CORYNE (CRN) (domain or fragment, UniProt Q9LYU7 118-401)
chain: SNGIQLLGSDLNGKYYKMVLDNGLVVAVKRLGSLEGVGSPESSSSKSVKRRLQKELELLAGLRHRNLMSLRAYVRESDEFSLVYDYMPNGSLEDVMNKVRTKEVELGWEIRLRVAVGIVKGLQYLHFSCETQILHYNLKPTNVMLDSEFEPRLADCGLAKIMPSSHTAVSCYSAPESSQSNRYTDKSDIFSFGMILGVLLTGRDPTHPFCEESASGGSLGQWLKHLQQSGEAREALDKTILGEEVEEDEMLMALRITIICLSDFPADRPSSDELVHMLTQLHSF
Turning to B3, the binding entry in assay [1] is “no binding”.

B4: kinase-dead PIP5K1 variant (K536A; 'iPIP5K1') (enzyme, UniProt Q56YP2 1-752)
chain: MSDSEEDEEEEEASEVILSSVVQKKKKKNLRFGEEVERRDGLVLLAQSTPMVRSRSQGTTRRVTPTPLVDVEKPLPNGDLYIGSFSGGFPHGSGKYLWKDGCMYEGDWKRGKASGKGKFSWPSGATYEGEFKSGRMEGFGTFTGADGDTYRGTWVADRKHGHGQKRYANGDFYEGTWRRNLQDGRGRYVWRNGNQYTGEWRSGVISGKGLLVWPNGNRYEGLWENGIPKGNGVFTWSDGSSCVGAWNESNIMRSFFNGVEKNDLIVGNRKRSSVDSGAGSLGGEKVFPRICIWESDGEAGDITCDIIDNVEASMIYRDRISVDRDGFRQFKKNPCWFNGEAKKPGQTISKGHKKYDLMLNLQLGIRYSVGKHASIVRDLKQTDFDPKEKFWTRFPPEGTKTTPPHQSVDFRWKDYCPLVFRRLRELFQVDPAKYMLAICGNDALRELSSPGKSGSFFYLTQDDRFMIKTVKKSEVKVLLRMLPSYYKHVCQYENSLVTRFYGVHCVKPVGGQKTRFIVMGNLFCSEYRIQRRFDLAGSSHGRSTAKPEGEIDETTTLKDLDLNFSFRLQRNWYQELMKQIKRDCEFLEAERIMDYSLLVGVHFRDDNTGEKMGLSPFVLRSGRIDSYQNEKFMRGCRFLEAELQDMDRILAGRKPSIRLGANMPAKAERMARRSDFDQYSSGGASYPSHGEMYEVVLYFGVIDILQDYDITKKIEHAYKSLQADPASISAVDPKLYSKRFRDFISRIFIEEG
Turning to B4, the binding entry in assay [3] was “binds”.

B5: BARELY ANY MERISTEM 3 (BAM3) kinase domain (domain or fragment, UniProt O65440 710-992)
chain: VKENHVIGKGGRGIVYKGVMPNGEEVAVKKLLTITKGSSHDNGLAAEIQTLGRIRHRNIVRLLAFCSNKDVNLLVYEYMPNGSLGEVLHGKAGVFLKWETRLQIALEAAKGLCYLHHDCSPLIIHRDVKSNNILLGPEFEAHVADFGLAKFMMQDNGASECMSSIAGSYGYIAPEYAYTLRIDEKSDVYSFGVVLLELITGRKPVDNFGEEGIDIVQWSKIQTNCNRQGVVKIIDQRLSNIPLAEAMELFFVAMLCVQEHSVERPTMREVVQMISQAKQPNTF
For B5, the binding entry in assay [1] is “no binding”.

B6: PBS1-LIKE 34 (PBL34) (enzyme, UniProt Q9LFP7 1-493)
chain: MGLDAVKAKGNWKSEKPKETENKNHKKKNGDDNKSRNEEEEEGEASGCWVKFRFMIGCIPSKSDLDASSSSIYGSNCTVTTMESKSANEKSNDQPVGQVSSTTTTSNAESSSSTPVISEELNISSHLRKFTFNDLKLSTRNFRPESLLGEGGFGCVFKGWIEENGTAPVKPGTGLTVAVKTLNPDGLQGHKEWLAEINFLGNLLHPNLVKLVGYCIEDDQRLLVYEFMPRGSLENHLFRRSLPLPWSIRMKIALGAAKGLSFLHEEALKPVIYRDFKTSNILLDADYNAKLSDFGLAKDAPDEGKTHVSTRVMGTYGYAAPEYVMTGHLTSKSDVYSFGVVLLEMLTGRRSMDKNRPNGEHNLVEWARPHLLDKRRFYRLLDPRLEGHFSIKGAQKVTQLAAQCLSRDPKIRPKMSDVVEALKPLPHLKDMASSSYYFQTMQAERLKNGSGRSQGFGSRNGQHQPVFRTLSSPHGSSPYRHQIPSPKPKGATT
As for B6, the values for the binding entry in assay [1], in assay [2] and in assay [3] were “no binding”, “no binding” and “binds”, respectively.

B7: PBL34-cYFP (enzyme, UniProt Q9LFP7 1-493)
chain: MGLDAVKAKGNWKSEKPKETENKNHKKKNGDDNKSRNEEEEEGEASGCWVKFRFMIGCIPSKSDLDASSSSIYGSNCTVTTMESKSANEKSNDQPVGQVSSTTTTSNAESSSSTPVISEELNISSHLRKFTFNDLKLSTRNFRPESLLGEGGFGCVFKGWIEENGTAPVKPGTGLTVAVKTLNPDGLQGHKEWLAEINFLGNLLHPNLVKLVGYCIEDDQRLLVYEFMPRGSLENHLFRRSLPLPWSIRMKIALGAAKGLSFLHEEALKPVIYRDFKTSNILLDADYNAKLSDFGLAKDAPDEGKTHVSTRVMGTYGYAAPEYVMTGHLTSKSDVYSFGVVLLEMLTGRRSMDKNRPNGEHNLVEWARPHLLDKRRFYRLLDPRLEGHFSIKGAQKVTQLAAQCLSRDPKIRPKMSDVVEALKPLPHLKDMASSSYYFQTMQAERLKNGSGRSQGFGSRNGQHQPVFRTLSSPHGSSPYRHQIPSPKPKGATT
In the case of B7, the binding result in assay [4] is reported as “binds”.
